Reference: PubChem BioAssay AID1458 (National Center for Advancing Translational Sciences (NCATS), 2008)
The whole screen tested about 210,000 compounds, of which about 5,900 (2.8%) were called active. The inconclusive results got no clear call from the source; some entries with a clear call stand among them for comparison. Calls come from the whole dose curve; as a rule, active = well fitted activation curve with a large enough effect; inconclusive = small, poorly fitted or top-dose-only effect; inactive = no such curve, though single readings can be large or run the other way. A potency beside an inconclusive call is a rough fit, not a confirmed value.

Assay: qHTS Assay for Enhancers of SMN2 Splice Variant Expression; note: nearly all actives have a fitted effect of over 55% in size
Settings: HEK293 SMN2-luciferase splicing reporter, luminescence, 30-36 h; series mostly up to 46.1 µM
Procedure, shortened: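 HEK293 cells carry an SMN2 minigene-luciferase reporter in which exon 7 inclusion puts luciferase in frame. Cells were seeded at 2000 cells/well, attached for 10-12 hours, then exposed to compounds for 30-36 hours at 37C before ONE-Glo luminescence.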
Potency is the fitted concentration of half-maximal effect; tags give direction and shape of the fitted curve.

| SMILES | Potency |
| --- | --- |
| CC(C)c1ccc(NC(=O)COc2ccc(F)cc2C(=O)c2cnn(-c3ccccc3)c2)cc1 | inconclusive: 22.4 µM [activator, single point] |
| CCNC(=O)/C=C/c1ccccc1[N+](=O)[O-] | inactive |
| O=C(Nc1ccc2nc(C3CC3)n(Cc3ccc(F)cc3)c(=O)c2c1)c1ccco1 | inconclusive: 0.251 µM [activator, full curve, poor fit] |
| O=c1[nH]c2ccccc2nc1CCc1ccccc1 | inconclusive: 20 µM [activator, partial curve] |
| Cc1cc2ncc(-c3cccc(Cl)c3)cn2n1 | inconclusive: 11.2 µM [activator, partial curve, poor fit] |
| C(=N\n1cnnc1)/c1cccc(OCCOc2ccccc2)c1 | active: 11.2 µM |
| Nc1c(C(=O)NC2CCCC2)c2nc3ccccc3nc2n1/N=C/c1ccco1 | inactive |
| O=c1[nH]c(-c2ccccc2)nc2sc(-c3ccccc3)cc12 | inconclusive: 11.2 µM [activator, partial curve] |
| O=C(OCC1CC(c2ccccn2)=NO1)c1ccc(Br)cc1 (stereo not given) | inactive |
| O=C1N(c2ccc(Cl)c(Cl)c2)CN(Cc2ccccc2)CN1n1cnnc1 | inconclusive: 0.501 µM [activator, full curve, poor fit] |
| COc1cc2ccccc2cc1C(=O)Nc1cc(-c2nc3ccccc3o2)ccc1C | inactive |
| COC(CNC(=O)c1cccc(-n2c(=S)[nH]c3cc(Cl)ccc3c2=O)c1)OC | inactive |
| CN(C)/C=N/C(=S)Nc1ccccc1 | inconclusive: 8.91 µM [activator, partial curve, poor fit] |
| Cn1cnnc1SCc1ccc(C(=O)N/N=C/c2cccs2)cc1 | inconclusive: 28.2 µM [activator, single point] |
| CCCc1cc(C(=O)Nc2cc(C)on2)no1 | inactive |
| COc1ccc(CNC(=O)COC(=O)c2n[nH]c3ccccc23)cc1OC | inactive |
| CN(C)C(=O)c1ccc(-c2nc(Nc3ccncc3)c3ccccc3n2)cc1 | inconclusive: 10 µM [activator, partial curve] |
| CCOCCCNC(=S)Nc1ccc(S(N)(=O)=O)cc1 | inconclusive: 0.398 µM [activator, partial curve, poor fit] |
| CCOc1ccccc1NC(=O)c1sc2nc(-c3ccc(OC)cc3)ccc2c1N | inconclusive: 1.78 µM [activator, full curve] |
| COc1ccc(OC)c(CCNC(=O)CN2C(=O)COc3ccc(S(=O)(=O)N4CCC(C)CC4)cc32)c1 | inconclusive: 3.98 µM [activator, partial curve] |
